# Experimental data as given in ChEMBL document CHEMBL4888484, “Replenishing the malaria drug discovery pipeline: Screening and hit evaluation of the MMV Hit Generation Library 1 (HGL1) against asexual blood stage Plasmodium falciparum ,using a nano luciferase reporter read-out” (2022).
# Out of some 150,000 compounds screened, about 540 (0.36%) showed an effect of 50% or more. The list shows a part of the results.
# System: Plasmodium falciparum
# Assay: Primary screen in NF54 nanoGlo assay, in single point, at 2uM, 72h; a lower Z score goes with more inhibition
# Assay type: functional, Erythrocyte
# Conditions: timepoint 72 hour
SMILES,% Inhibition,Z score
CCn1c(C)nnc1CN1CCn2c(nnc2C(C)(C)C)C1,5%,-0.72
CNC(=O)[C@@H](NC(=O)c1cccc(C(F)(F)F)c1)C(C)(C)C,4%,-0.57
O=S1(=O)N=C(NCC2(N3CCOCC3)CCCCC2)c2ccccc21,-1%,0.12
CCS(=O)(=O)C1CN(Cc2ccccc2OC(C)C)C1,1%,-0.22
COc1cc(NC(=O)CCc2ccccc2)nc(OC)n1,-12%,1.56
Cc1nc2c(NC(=O)CN(C)S(C)(=O)=O)cccc2o1,-22%,2.33
O=S(=O)(Nc1ccccc1)c1cnc2ccccc2c1,11%,-1.48
CCN(CC)C(=O)[C@@H]1CCCN1Cc1cnc2c(C)cccn12,-3%,0.35
Cn1ncc(Cl)c1C(=O)N1CC[C@@]2(CCCN(CC3CC3)C2=O)C1,2%,-0.34
C#CCN(C)C(=O)CCc1ccc(Cl)s1,0%,0.07
CC(=O)N1CCC(C(=O)N[C@@H](CC(C)C)c2ncnn2C)CC1,-20%,2.54
CCCc1nn(-c2cccc(F)c2)c(N2CCN(CC)CC2)c1CN(CCC)Cc1ccccc1,-27%,2.37
CC(=O)c1ccc(N2CCN(C(=O)CCN3C(=O)c4ccccc4C3=O)CC2)cc1,-2%,0.28
COc1cc(-c2cc(C(=O)N3CCN(C(c4ccccc4)c4ccccc4)CC3)c3ccccc3n2)cc(OC)c1OC,15%,-1.55
CC(=O)Nc1ccc(-c2cn(C)c[n+]2C)cc1,-42%,4.97
CC(C)c1noc(CN(C)C(=O)CCc2cccc(Cl)c2)n1,-22%,1.99
Cc1ccc(C(=O)O/N=C(\Nc2cc(C)ccc2C)c2nonc2N)cc1,-1%,0.24
CC(=O)c1c(C)n(-c2ccccc2)c2cc(Br)c(OCc3nnc(C)o3)cc12,-11%,1.94
COc1ccccc1CCNC(=O)Nc1c(-c2ccccc2)nn(-c2ccc(C(F)(F)F)cc2)c1N,-13%,1.37
Cc1ccc(CN(CCO)Cc2cc(-c3ccccc3)on2)o1,-14%,1.58
COc1ccc(-c2cc(C)no2)cc1S(=O)(=O)NCCN(Cc1ccco1)C1CCCC1,-19%,2.49

SMILES,% Inhibition,Z score
Cc1cc(OCc2nnc(/C=C/c3ccccc3)o2)ccc1Br,-8%,1.57
CNC(=O)Cc1nc(CNC2CCCC2c2ccccc2)cs1 (stereo unspecified),-12%,1.3
CCN(CC)c1onc(-c2ccccc2)c1CN(Cc1ccccc1)C(=O)C(C)C,5%,-0.64
CCCCc1nc(CN2C[C@@H]3CC[C@H]2CN(S(=O)(=O)N(C)C)C3)c[nH]1,1%,-0.19
Nc1nc(CCC(=O)N2CCC[C@@H]2CO)cs1,-7%,0.66
Cc1ccc(NC(=O)Cc2csc(-c3cccnc3)n2)cc1,-9%,1.5
N#Cc1ccc(CN2CCN3C(=O)c4ccc(-c5ccccc5)cc4OCC[C@@H]4CC[C@H](O)[C@@H](CNC(=O)[C@@H]3C2)O4)cc1,10%,-1.35
CCOC(=O)N(C)CC(=O)N(CC#N)Cc1ccccc1,7%,-0.88
CCc1nnc2c(=O)n(CC(=O)NCC3CCCCC3)c3cccnc3n12,0%,-0.01
CCOC(=O)CCc1c(C)nc2ncnn2c1N1CCN([C@@H](C)c2ccccc2)CC1,-1%,0.12
O=C(c1csc2ccccc12)N1CCn2c(nnc2C(F)F)C1,-1%,0.24
O=C(c1ccc2c(-c3ccccc3)onc2c1)N1CCN(C(=O)c2ccco2)CC1,-19%,1.76
CN1CCC[C@@H](c2nc(Cc3c(F)cccc3Cl)no2)C1=O,-10%,1.19
COC(=O)c1cc(C)ccc1OC(=O)CCN1CCCC1=O,1%,-0.17
CCCn1c(C)cnc1[C@H]1CCN(C(=O)Cc2cccc(OC)c2)C1,-4%,0.62
O=C(NCc1cc(C2CC2)ncn1)c1ccccc1Cl,5%,-0.7
O=C(N[C@H]1CCOC[C@@H]1OCCO)c1cccc(C(F)(F)F)c1,-19%,2.8
C[C@@H](Cc1ccccn1)NC(=O)Cc1noc2ccccc12,-16%,2.08
Cc1ccc(C[C@H](C)NS(=O)(=O)C2CCOCC2)s1,-4%,0.77
N#CCCn1cc(C(=O)Nc2nccs2)c(-c2ccc(F)cc2)n1,-6%,0.95
Cc1nnc(O)c(CNS(=O)(=O)CC2CCCCC2)c1C,-10%,1.34

SMILES,% Inhibition,Z score
CCOc1ccc(NC(=O)c2cn3nc(-c4ccc(OCC)cc4)cc3nc2C2CCN(C(=O)OC(C)(C)C)CC2)cc1,21%,-1.7
COCC[C@H](NS(=O)(=O)c1ccsc1C#N)c1cccnc1,-2%,0.21
CC[C@@H]1Oc2ccc(NC(=O)COc3ccccc3)cc2CN(Cc2ccccc2)C1=O,-4%,0.53
CN(C)C(=O)OCCN(C)[C@H]1CCCc2c1cnn2C,-9%,1.1
Cn1cnnc1Cc1c[nH]c2ccccc12,-14%,2.74
COCCC1(CNC(=O)N2CCCCCCC2)CC1,2%,-0.21
Cc1cc(C)c(NC(=O)c2cccn2-c2cccnc2C)c(C)c1,-16%,1.57
O=C(CCC(=O)c1ccc(Cl)cc1)N[C@H]1CCS(=O)(=O)C1,-8%,1.57
COc1cccc([C@@H]2C(=O)N(Cc3cn(C)nn3)C(=O)N2C)c1,-5%,0.85
Cn1cc(C[C@@H](CO)NS(=O)(=O)c2cc(F)cc(Cl)c2)cn1,-25%,2.13
O=C(O)CC1(CNC(=O)CCc2nc(-c3ccc4cc[nH]c4c3)no2)CCCCC1,8%,-1.04
NC(=O)c1cccnc1N1CCC(n2cc(-c3ccccn3)nn2)CC1,-21%,1.88
CN(C[C@@H]1CC=CCC1)CC(C)(C)S(C)(=O)=O,-11%,1.56
c1cncc(-c2n[nH]cc2CNc2nnc(-c3cccs3)o2)c1,-11%,1.48
CC(C)C[C@@H]1CN(C(=O)CCCc2c[nH]c3ccccc23)CC[C@]1(C)O,-1%,0.17
Cc1nc(-c2ccccc2OC2CN(C(=O)c3cnn(C)c3)C2)no1,0%,-0.02
CC(C)[C@H](CO)CNC(=O)c1cc(C(C)(C)C)nc(=O)[nH]1,4%,-0.72
Cc1nn(C(=O)N2CCCCC2)c(C)c1CN1C(=O)c2ccccc2C1=O,-8%,1.07
Cc1ccn2c(=O)c(C(=O)NCCO)c(O)nc2c1,2%,-0.3
Nc1nnc(CCn2cc(-c3ccc(CO)o3)nn2)s1,-14%,2.36
Cn1c(=O)ccn(CC(=O)N(Cc2ccco2)C2CC2)c1=O,10%,-1.35

SMILES,% Inhibition,Z score
Cc1ccc(NCc2cnc3ccnn3c2)cc1OC(F)F,7%,-1.25
CC[C@@H](Cn1nnc2ccccc2c1=O)NC(=O)Nc1ccc(C)cc1C,6%,-1.13
COc1ccc(-n2cc(-c3cccc(OC)c3)nc2NC(=O)CN(CC(C)C)C(=O)Cc2ccccc2)cc1,-4%,0.52
O=C(NCc1ccc2c(c1)OCO2)N1CCC[C@H]1c1ccncc1,-7%,1.22
CCn1cc(-c2c(-c3ccccc3)ncn2[C@@H](C)Cc2cnccn2)c(C)n1,-15%,1.42
CN(Cc1ccccc1)C(=O)CCC1CCN(C(=O)c2cccc(N)n2)CC1,-15%,1.59
COc1ccnc(CN2CCC(CNC(=O)c3cc(C(C)C)no3)CC2)c1OC,-3%,0.62
CCc1noc(NC(=O)Cc2c(C)noc2C)c1C,-83%,15.97
CC(C)c1nnc2ccc(NC(=O)[C@@H]3COCCO3)cn12,-6%,0.91
Cc1cc(NC(=O)COc2ccc3c(c2)CCC3=O)n(C)n1,-5%,0.61
O=C(NOCc1ccccc1)N1CCN(c2ccccc2O)CC1,-1%,0.13
COc1ccc(NC(=O)Cn2c3cc(=O)n(N4CCN(C)CC4)c(C)c3c(=O)n2-c2nc3ccccc3s2)c(OC)c1,1%,-0.15
COc1nc(N2CCC3(CC2)CNC(=O)O3)ncc1F,3%,-0.48
COc1cc(NC(=O)N[C@H]2CCCn3ncnc32)n(C)n1,4%,-0.58
Cc1ncn(C)c1C(=O)N(C)Cc1ccc(CN(C)C)cc1,-15%,1.56
COc1ccc(CC(=O)Nc2ccc(N3CCNC(=O)C3)nc2)cc1,-6%,0.57
Cc1nccc(O[C@H]2CCCN(C(=O)C3CCCC3)C2)n1,3%,-0.35
CCC(NS(=O)(=O)c1c(C)cccc1Cl)[C@H]1C[C@H](O)C1 (stereo partly specified),-5%,0.57
CC1CCCCC1NC(=O)c1ccc(CN2C(=O)CCn3nccc32)cc1 (stereo unspecified),10%,-1.15
COc1cccc(C(=O)N2CC3(C[C@H](N(C)Cc4ccccc4)CO3)C2)c1OC,-8%,1.18
